Measured values: US20100317578A1, “METHOD OF PROTECTING AGAINST STROKE THROUGH THE USE OF A DELTA OPIOID PEPTIDE” (priority 2009, published 2010)

System: neurogenesis

`CC(C)C[C@@H](NC(=O)[C@H](Cc1ccccc1)NC(=O)CNC(=O)[C@@H](C)NC(=O)[C@@H](N)Cc1ccc(O)cc1)C(=O)O` [DADLE, [D-Ala^2,D-Leu^5]enkephalin] was tested. Which induction of neurogenesis did it give?
The induction of neurogenesis was “robustly induces neurogenesis”.
